Read counts are not given, so values of variants with three or more changes are uncertain.
B1: LINE1-full (parent)
chain: UACGUAGGUGGUUUUCCCCUGAUAGUGCUAAGGGGGCCUGGAAGUUUGGACUGGGCAGAGCUCAACACAGCGUGGCAAAGUGGCUGUGGCUAGACUGCCUCUCUGGAUUCCUCGUCACUCAGCAGGGCAUCUCUGAGAGAAAUGCC

Variants of: B1
Assay: self-cleavage, relative activity (ratio to wild type); higher = more cleavage; in vitro, sequencing; the parent is a self-cleaving ribozyme

Row | Variant | self-cleavage
1 | A22G C68U U73A A79G A124U | 0.08
2 | U26A U39C G106C A142G | 0.63
3 | U13C A22G U119C | 1.23
4 | A22G A59G U91A A138G | 0
5 | U20A U73A G122U A136G | 1.76
6 | U45A A94G U100C | 0.24
7 | U47C A69G G83A | 0.16
8 | U39A A64G U85C A140G | 0.16
9 | U100C U109C A140U | 2.41
10 | U62C A65U A69G G88A U108C A136G A140G | 0
11 | C38G A107G G137U | 2.17
12 | A64G A69G U100C | 0
13 | U46C U47C G54A | 1.31
14 | A79G A92G C113U | 0.03
15 | C51U A121G U132C | 1.4
16 | U5A A6G U15C | 0.43
17 | G34A A42G U102G | 0.82
18 | A24G C28U U100C | 1.56
19 | U14C U26C A92U G127U | 1
20 | U5C U15C G72U U104A U132C | 0.67
21 | U73C U81A A94G | 0.2
22 | A42G U62A C123G | 0.09
23 | A30U A31G C37G | 0.33
24 | U13A U52C G54C A78G A117G | 0

Row | Variant | self-cleavage
25 | U29C A43G U96C C133A A136G | 0
26 | U26A A57C U96A | 0.09
27 | U9A A94U A107G | 0.33
28 | G21A U119A A142G | 1.07
29 | U13A U100C A117G | 0
30 | U47C A94G U143A | 0.53
31 | U5C A22G A78G U119C A129U | 1.37
32 | U13C A78C U81C | 1.02
33 | U20C A64G A92U A121C C123U A140C | 0.4
34 | A50G U112C A138G | 1.67
35 | A30U A59C A67G A124U | 0.33
36 | U12G U20C A43G U143A | 0.98
37 | U47C A136G A141G | 1.62
38 | U1C U52C A69U A124G | 0.07
39 | A43U U62C U81C U85A | 0.09
40 | A67G G89A U102C | 0
41 | U13C C63U A69G | 0.2
42 | U1C U13C U102C A121G U130A | 0
43 | C61U U108C C120U | 0.02
44 | A78C U87A A94G U100C | 0
45 | A6G A77U A79U U85A | 0.32
46 | U47C U52C A121U | 1.47
47 | G4A A65G U73A | 0.03
48 | U5C A65G C113U A140G | 0.09

Row | Variant | self-cleavage
49 | C17A A67C U104C A140U | 0.22
50 | U26C U85C U87A | 0.15
51 | A42G U47C U62A | 0.19
52 | U20C C61U A69G U91C U108C | 0
53 | U15A A24G A57G A69C | 0.25
54 | U14C U29C G54A C101U | 0.51
55 | U20C U62C A121G G122A | 0.03
56 | C37U U47A A65G | 0.01
57 | G41U C123U U132C | 1.21
58 | A24U A77G U100C | 1.79
59 | U13C U62A U73A | 0.11
60 | U91C U96C C99A | 0
61 | U12A A43G U45G A121G | 1.02
62 | A30G U39C U73G A141U | 0.88
63 | U14C U108C U119A | 2.24
64 | U45C C84U C90G A140G | 0.08
65 | U47A U52A U62C A141G | 0.02
66 | U15C G35A A69G A92G A136U A142C | 0
67 | A50G C118U A124G | 0.4
68 | A2G U96C U132C | 0
69 | A24G A77G G86U A94G A136G | 0.4
70 | U13C C76A G83A U109C | 0.5
71 | A57G A59G A64U | 0.1
72 | A6G C90U A92G A129G | 0.1

Row | Variant | self-cleavage
73 | U73C U85C A136U | 0.06
74 | A30G U39C U45C C131U U134C G135U | 0.98
75 | U73A A92U A140U | 1.01
76 | U45C A64U A79G U109G | 0.15
77 | U15C U115C A121C | 2.04
78 | U9A U39C C66U U112C A138G | 0.05
79 | U85A A94G C133U U143A | 0.18
80 | U47C A67G G72A A77U G88U | 0.02
81 | U12G A42G A92G | 0.36
82 | U13C C28A U81C U85C | 0.85
83 | U29A U104A U112C U134C | 1.06
84 | U102C A117G A136G G137U | 2.9
85 | A2G C63A A67G | 0.35
86 | A31U U96C U108C U115G | 0
87 | A22G A65U U112C | 0.2
88 | U13G U29A C90A A136G | 0.02
89 | U26C U46A U130A | 1.24
90 | U12G A124C A129G | 1.1
91 | U26A U112C U134C | 1.44
92 | U5C U87C A94G U108A | 0.4
93 | G7C U109C A138G | 1.1
94 | A2U U109A U143C | 0.71
95 | U13C U29G G35C | 1.17
96 | U13C U119C A136G | 0

Row | Variant | self-cleavage
97 | U9A U62A A141G | 0.1
98 | A57U A67G A129U A140G | 0.06
99 | U12A U26C G48A A79G | 0.63
100 | U20A U81A U104C | 2.46
101 | A92U A141G A142C | 0.8
102 | U12C U14C U134A A140G | 0.49
103 | U12G A59U U112C | 0.52
104 | U15A U20C U39G A77U | 1.47
105 | A65G U132A A136G A141G | 0
106 | G93A U104C U134C A142G | 0.06
107 | A22G G34A U134C | 1.3
108 | A64U C71G G137U | 0.09
109 | U62C U73A U81A | 0.02
110 | U26G U85C A138G | 0.27
111 | G36U A136G A141G | 1
112 | U14C U39C A94G | 0.45
113 | U5C A6U A92U | 0.61
114 | G33U U100C U104A | 1.43
115 | A42G U85C A121U | 0.28
116 | U13G G55U U73G U134C | 0.23
117 | U14C U115A A129G | 1.62
118 | U23C A57U A59U | 0.09
119 | U14C G80A A141G | 1.57
120 | A92G U112C A141G | 0.25

Row | Variant | self-cleavage
121 | A6U U12G A136G A141U | 0.91
122 | A6U U112C A138G | 0.79
123 | U52A A59G A140G | 0.08
124 | U15C A50U U96C | 0.08
125 | U39C A124G A141G C145G | 0.87
126 | A43G G89U A138U | 0.05
127 | U9C U47C A107C | 0
128 | G7U G74A C120A | 1.01
129 | A94G U119A A138G | 0.43
130 | U73A U81A C90A U108C A117U | 0.18
131 | A42G A43U U45C | 1.36
132 | A77C A79U U108C | 0.42
133 | A50G A77G G97U A121G | 0.23
134 | G72A U108A U134C | 1.31
135 | U26C U96C C118U U134A | 0
136 | C56U A77G U104C A117U | 0.19
137 | U9C U13C U39A A129U | 0.54
138 | A59U G93U A107G | 0.07
139 | U73C U130C U132G G137A | 2.04
140 | U5A U9C U12G A67G A138G | 1.31
141 | U13C U23G A24G A107G | 0
142 | A30G A57U A140G | 0.55
143 | U14C A138U A141G | 1.15
144 | U12G U46C U52A | 1.07

Row | Variant | self-cleavage
145 | U26C A57G A59U A92U A142C | 1.25
146 | A24G U85C U100A | 0.14
147 | U23C A64C A77U | 0.48
148 | U13C U47A G58A A79G U109A U132C | 0.11
149 | U15C A94U U112C A142G | 0.2
150 | U26C U100C U115C C131U | 2.58
151 | C51U U108C C123U | 1.8
152 | A69G A79U U143C | 0.58
153 | U45C A77C G88A C95U U119C | 0.01
154 | U5A A42G U109A A141C | 1.56
155 | A30C A94G A142G | 0.48
156 | U23C U26A G33A | 1.05
157 | U13C U23C U100C A136U | 1.31
158 | U13C A31G U87G U119C | 0.66
159 | U13G U73A A129G A138G | 1.58
160 | U14G U100C U112C | 2.04
161 | A22G A42U C113U A129U U132A | 1.08
162 | U15C A57U A67G | 0.19
163 | U100C C131U U132C G139A | 1.71
164 | U14C G21U U100C A124G G144A | 1.23
165 | A42G U46C A59U | 0.26
166 | A2G U39A U46C C98U G144C | 0.46
167 | U5C U23C U46G | 0

— the RNAGym collection of RNA variant scans (doi:10.7554/elife.90254)
